In all, about 13,000 compounds were measured (“IFI”: median about 4, highest 2% from about 17 on). The list shows a part of the results.
Test: GSK_TCMDC: Inhibition Frequency Index (IFI). The number of non-kinase HTS assays where a compound showed > 50 % inhibition, expressed as a percentage of the number of such assays in which the compound was tested (-0 is zero)
Assay type: functional

SMILES | IFI
O=C(N[C@H](CC1CCCCC1)C(=O)NC1CCCc2ccccc21)c1ccc(O)c(-c2cccc([N+](=O)[O-])c2)c1 (some centres undefined) | 0.7%
O=C(Nc1ccc(Cl)cc1)c1ccc(CN2CCCN(CC3CCCCC3)CC2)cc1 | 9.45%
O=C(NC1CC1)c1ccc(N2CCC(Oc3ccc(F)cc3)CC2)nc1 | -0%
COc1ccccc1Cn1ccnc1SCC(=O)Nc1cccc(C(F)(F)F)c1 | 2.38%
c1ccc(C2=NN=C(c3ccccn3)C3C4CC(C23)C2C3CC(c5ccccc53)C42)nc1 (centres undefined) | 8.89%
Cc1ccc(C(NC(=O)C2CCCCC2)c2ccc3cccnc3c2O)cc1 (centres undefined) | 7.08%
CC(=O)N[C@H](C(=O)Nc1cccc(-c2ccc(-c3nc4cccc(C)c4[nH]3)s2)c1)C(C)C | 4.55%
COc1ccc2c(NN=Cc3cccc(F)c3)ccnc2c1 | 4.9%
O=C(/C=C/c1ccc(Cl)c(Cl)c1)N1CCC(CCN2CCC(c3c[nH]c4cnccc34)CC2)CC1 | 13.5%
CC1CC(C)CN(CCCNc2ccc(C(=O)Nc3ccc(C(F)(F)F)cc3)cc2[N+](=O)[O-])C1 (centres undefined) | 4.44%
CCN(CC)c1ccc2nc(N)nc(N)c2c1Cl | 1.47%
CCn1c(-c2nonc2N)nc2c(-c3cccc(NC(=O)Nc4ccc(C#N)cc4)c3)ncc(OCCCN)c21 | 15.7%
Cc1cc(N2CC=CCC2)nc(NC(=N)Nc2ccc(Br)cc2)n1 | 1.47%
CCN1CCN(c2cc(C)c3cc(NC(=O)c4ccc(C(C)(C)C)cc4)ccc3n2)CC1 | 4.7%
C=C(F)c1sc(CNCCCNc2nc3ccccc3[nH]2)c(C)c1Br | 2.21%
COc1ccc(NC(=O)CCNc2cc(C)nc(NCCOc3ccccc3)n2)cc1 | 4.88%
Cc1ccc(-c2nc(NC(=O)Nc3ccc(C(F)(F)F)cc3)sc2C)cc1Cl | 6.16%
CC(C)(C)c1cc(NC(=O)c2ccc(Cl)c([N+](=O)[O-])c2)cc(C(C)(C)C)c1 | 2.78%
Nc1nc(N)c2c(ccc3c2cnn3Cc2cccnc2)n1 | 1.53%
CCc1cn2c3c(cc(C(=O)N[C@@H](Cc4ccccc4)[C@H](O)CNC4CCCCC4)cc13)N(C)S(=O)(=O)C2 | 5.07%

SMILES | IFI
CO/C(=C\C=C\c1cc2cc(Cl)c(Cl)cc2[nH]1)C(=O)NC1CCN(CCNc2ccccc2)CC1 | 9.3%
N=C(Nc1cccc(Cc2ccccc2)n1)Nc1ncccn1 | 17.2%
COc1cc2c(cc1OCCN1CCC(N3CCCCC3)CC1)N(C(=O)/C=C/c1ccccc1Cl)CC2 | 4.35%
CN1CCC(NC(=O)c2cccc(Nc3cc(Nc4cccc(Br)c4)ncn3)c2)CC1 | 2.27%
CC=CC(=O)N1CCN(c2nccc(-c3ccc(C(C)(C)C)cc3)n2)CC1 | 5.26%
S=C(NN=Cc1ccccn1)NC1CC2C=CC1C2 (centres undefined) | 6.29%
CCCCCCOc1ccc(C(=O)NCCC2CCN(CCCCCNC(=O)C=Cc3ccc(Cl)c(Cl)c3)CC2)cc1 | 6.11%
N=c1n(Cc2ccccc2)c2ccccc2n1CC(O)c1ccc(Cl)cc1 (centres undefined) | 6.31%
CCCCCCN1CCC(NCc2ccc(Cl)cc2)CC1 | 4.08%
O=C(CSc1nc2ccc([N+](=O)[O-])cc2s1)Nc1ccccc1-c1ccccc1 | 4.39%
CN(C)c1nc(NN=Cc2cc(Cl)ccc2O)nc(Nc2ccc(F)cc2)n1 | 6.52%
c1cc(COc2ccc(C3=NCCN3)cc2)nc(COc2ccc(C3=NCCN3)cc2)c1 | 0.75%
COc1cc(CN2CCC(C(=O)Nc3ccc(-c4cccc(C)c4)cc3)CC2)ccc1O | 11.6%
COc1cc2ncnc(Nc3ccc(OCc4ccccc4Br)c(Cl)c3)c2cc1OC | 1.38%
COc1cc(Cc2cnc(N)nc2N)cc(OCCCCNS(=O)(=O)C(F)(F)F)c1OC | 1.53%
CCN(CCCN1CCCCC1)c1cc(C)nc(Nc2cc(C(F)(F)F)ccc2C)n1 | 3.85%
O=C(/C=C/c1ccc(Cl)c(Cl)c1)NC1CCC(CN2CCC(c3nc4cc(O)ccc4[nH]3)CC2)CC1 (centres undefined) | 8.21%
Cc1ccc2[nH]c(C)cc(=NN=Cc3ccc(Cl)cc3)c2c1 | 0.72%
Cn1c2ccccc2c2c3ccccc3c(CNC(CO)(CO)CO)cc21 | 7.69%
O=C(O[C@H]1CN[C@H](C#Cc2cc3ncnc(Nc4ccc5c(ccn5S(=O)(=O)c5cccs5)c4)c3s2)C1)N1CCOCC1 | 2.8%

SMILES | IFI
O=C(c1cccs1)N1N=C(c2cccs2)CC1c1cccc([N+](=O)[O-])c1 (centres undefined) | 4.29%
NC1=NC(c2ccccc2)(c2ccccc2)C(=O)N1Cc1ccc(-c2ccncc2)cc1 | 4.46%
COc1ccc(C2CC(c3cccs3)=NN2C(=O)c2ccco2)cc1OC (centres undefined) | 1.32%
CC(C)NCc1ccc(-c2ccc(NS(=O)(=O)c3cccc4cccnc34)cc2)cc1 | 5.79%
CN1CCCN(Cc2ccc(-c3cccc(NC(=O)c4ccc(Cl)cc4)c3)cc2)CC1 | 2.86%
Cc1ccc(-c2ccc(NC(=O)N3CCc4cc(Br)c(N5CCN(C)CC5)cc43)cc2)cn1 | 8.33%
CN(CCN1CCC(c2c[nH]c3ccccc23)CC1)C(=O)OCCCCCNC(=O)/C=C/c1ccc(Cl)c(Cl)c1 | 12.8%
COc1ccc(CCNCCCCCCNCCc2ccc(-c3ccccc3)cc2)cc1OC | 7.19%
Cc1cc(CN2CC[C@H](NC(=O)c3ccc(Cl)c(Cl)c3)C2)ccc1OCCN1CCCC1 | 9.68%
CC(=O)Oc1c(Cl)c(C)nc(C)c1-c1ccc(Oc2ccc(Cl)cc2)cc1 | 5.43%
Cc1ccccc1C1CCN(c2ccc(C(=O)NC3CC3)cn2)CC1 | 8%
CC(C)C[C@H]1C(=O)N[C@H](C2Cc3ccccc3C2)C(=O)N1[C@@H](C(=O)Nc1ccccc1OCc1ccccc1)c1ccc(F)cc1F | 2.94%
Clc1ccc(-c2[nH]c3ccccc3c2CN2CCC(N3CCCCC3)CC2)cc1 | 4%
CN1CCN(c2ccc(Cl)cc2NC(=O)C2COc3ccccc3O2)CC1 (centres undefined) | 3.7%
COc1ccc(Nc2nccc(-c3ccc(NC(=O)c4cc5cc(F)ccc5[nH]4)cc3)n2)cc1 | 3.08%
Cc1cnc(Nc2cccc(CCN3CCOCC3)c2)nc1NC(C)C | 17.2%
Cc1ncccc1-c1cccc2c(NC(=O)Nc3ccc4nccc(N5CCN(C)CC5)c4c3)cccc12 | 2.88%
c1ccc2[nH]c(CN(Cc3nc4ccccc4[nH]3)Cc3nc4ccccc4[nH]3)nc2c1 | 6.25%
O=C(Nc1cccc(CN2CCN(C(=O)c3cccs3)CC2)c1)c1cccs1 | 3.01%

Reference: ChEMBL document CHEMBL1157539, “Thousands of chemical starting points for antimalarial lead identification” (Nature, 2010)
